{
  "source": "PubChem BioAssay AID588549",
  "about": "(Broad Institute, 2011)",
  "note": "Screen size: about 360,000 compounds; about 780 (0.22%) were called active. This list was built around the results that the source calls inconclusive (neither active nor inactive); the mix of calls is not that of the screen. Rule as the data show it: active = inhibition above about 8.5% (passing the limit was not always enough); inconclusive = no clear call, values can overlap the other calls.",
  "data": [
    {"test_system": "Mycobacterium tuberculosis FadD28 fatty-acid-AMP ligase", "test": "inhibitors of FadD28 bisubstrate probe binding, primary screen, biochemical, fluorescence polarization, single point (AID 588549)", "details": "at 12.5 µM, stronger effect = higher value", "values": [
      {"smiles": "CC1(C(=O)O)CCCN(C(=O)c2ccc(OC(F)F)cc2)C1", "note": "(centres undefined)", "inhibition": "inactive: 0.206%"},
      {"smiles": "Cc1cccc(N2NC(=O)/C(=C/c3ccc(-c4ccc(Cl)c(C(=O)O)c4)o3)C2=O)c1", "inhibition": "inconclusive: 6.96%"},
      {"smiles": "CCOc1ccc(N(C(C)C(=O)Nc2cccnc2)S(C)(=O)=O)cc1", "note": "(centres undefined)", "inhibition": "inconclusive: 5.25%"},
      {"smiles": "CC1=NCCN1S(=O)(=O)c1cc([N+](=O)[O-])ccc1Cl", "inhibition": "inactive: -0.546%"},
      {"smiles": "CC(C)NC(=O)N1CCC(n2nccc2NC(=O)CCOc2ccccc2)CC1", "inhibition": "inconclusive: 11.1%"},
      {"smiles": "COc1cc(/C=C2/C(=O)NN(c3cccc(Cl)c3)C2=O)cc(OC)c1O", "inhibition": "active: 10.8%"},
      {"smiles": "C/C(=N\\NC(=O)c1cccc(Cl)c1)C1C(=O)c2ccccc2C1=O", "inhibition": "inconclusive: 7.33%"},
      {"smiles": "Cc1ccccc1C(=O)NNC(=S)NC(=O)c1ccccc1", "inhibition": "inactive: 0.601%"},
      {"smiles": "CCCc1nc(N)c(C#N)c(-c2ccco2)c1CC", "inhibition": "inconclusive: 2.92%"},
      {"smiles": "CCc1ccc2nc3nc(C)cc(C)c3c(N)c2c1", "inhibition": "inactive: -1.71%"},
      {"smiles": "O=C(/C=C/c1cc[n+](CC(=O)c2ccc3cccc4c3c2CC4)cc1)c1ccc2cccc3c2c1CC3", "inhibition": "inconclusive: 6.56%"},
      {"smiles": "Nc1ccc(N2CCCCC2)c2nonc12", "inhibition": "inactive: 1.91%"},
      {"smiles": "CC(C)(C)c1ccc(Cn2nnc3c(=O)[nH]c(C4CCCN(C(=O)c5cccs5)C4)nc32)cc1", "note": "(centres undefined)", "inhibition": "inconclusive: 6.6%"},
      {"smiles": "C=CCSC1=N/C(=C\\C=C\\c2ccco2)C(=O)S1", "inhibition": "inconclusive: 7.43%"},
      {"smiles": "CCCCCCCCCCCCCCCCn1cc[n+](C)c1", "inhibition": "active: 48.8%"},
      {"smiles": "COc1cccc2sc(NN)nc12", "inhibition": "inconclusive: 12%"},
      {"smiles": "COc1cccc(NC(=O)Cn2nnc(C(=O)Nc3ccccc3)c2N)c1", "inhibition": "inconclusive: 7.34%"},
      {"smiles": "O=C(NN=Cc1ccc(N(CCCl)CCCl)cc1)c1cccnc1", "inhibition": "inconclusive: 2.74%"},
      {"smiles": "CCN(CC)S(=O)(=O)c1cc(NC(=O)c2cc([N+](=O)[O-])ccc2N2CCOCC2)ccc1C", "inhibition": "inconclusive: 7.12%"},
      {"smiles": "C[C@]12c3[nH]c4ccccc4c3CCN1C(=O)C(CC(=O)NCc1ccco1)C[C@@H]2C(=O)N1CCOCC1", "note": "(some centres undefined)", "inhibition": "inactive: -3.26%"},
      {"smiles": "CCOC(=O)CSc1nc2cc3c(cc2cc1C)OCO3", "inhibition": "inactive: -1.02%"},
      {"smiles": "O=c1cc(CSc2nnnn2-c2ccccc2)[nH]c2[nH]n(-c3ccccc3)c(=O)c12", "inhibition": "active: 8.91%"},
      {"smiles": "Cc1ccc(-n2c(=O)c(C#N)cc3c(=O)n4ccccc4nc32)cc1", "inhibition": "inactive: -4.01%"},
      {"smiles": "COC(=O)c1cc(NC(=O)c2ccccc2)c(=O)oc1/C=C/Nc1ccc(Oc2ccccc2)cc1", "inhibition": "inconclusive: 7.83%"},
      {"smiles": "O=[N+]([O-])c1cc(Cl)cc(/C=N/NC(=S)Nc2cc(S(=O)(=O)N3CCOCC3)ccc2Cl)c1O", "inhibition": "active: 22.5%"},
      {"smiles": "COc1ccc(COc2ccc3c(C)cc(=O)oc3c2)cc1", "inhibition": "inconclusive: 3.89%"},
      {"smiles": "O=C(Nc1ccc(F)cc1F)NC1CCCCCCC1", "inhibition": "inconclusive: 5.79%"},
      {"smiles": "COc1cc(/C=C/c2ccc3cccc(O)c3n2)cc(OC)c1OC", "inhibition": "active: 13.3%"},
      {"smiles": "CC1(C)Cc2c(sc(/N=C/N3CCOCC3)c2C#N)C(C)(C)N1", "inhibition": "inactive: -0.181%"},
      {"smiles": "CC1=C(C#N)C(=O)NC(=O)/C1=C\\c1ccc(-c2cc(C)c(C)cc2[N+](=O)[O-])o1", "inhibition": "active: 14.7%"},
      {"smiles": "COc1ccc([N+](=O)[O-])cc1NC(=S)NC(NC(=O)C(c1ccccc1)c1ccccc1)C(Cl)(Cl)Cl", "note": "(centres undefined)", "inhibition": "inconclusive: 2.23%"},
      {"smiles": "COc1ccccc1NC(=O)c1ccc2c(c1)C(=O)N(c1ccccc1OC)C2=O", "inhibition": "inconclusive: 4.9%"},
      {"smiles": "O=S1(=O)CCN2C=C(Cl)C=C(Cl)C2=N1", "inhibition": "inactive: 0.777%"},
      {"smiles": "Cc1ccc(C)c(NC(=O)C(CC(=O)O)Cc2ccccc2)c1", "note": "(centres undefined)", "inhibition": "inconclusive: 3.92%"},
      {"smiles": "O=C(O)c1cc(-c2ccc(/C=N/Nc3ccc([N+](=O)[O-])cn3)o2)ccc1Cl", "inhibition": "inactive: 0.732%"},
      {"smiles": "Cc1ccc(S(=O)(=O)N2[C@@H](c3cccc(Cl)c3)C(C(=O)O)=CC[C@H]2c2cccc(C)c2)cc1", "inhibition": "inconclusive: 7.84%"},
      {"smiles": "Cc1ccc(NC(=O)C2CC(=O)N(c3ccc4c5c(cccc35)CC4)C2)cc1", "note": "(centres undefined)", "inhibition": "inconclusive: 6.66%"},
      {"smiles": "Cc1cc(F)ccc1C(O)c1ncc(-c2cccc(F)c2)[nH]1", "note": "(centres undefined)", "inhibition": "inactive: -1.24%"},
      {"smiles": "O=C1/C(=N\\S(=O)(=O)c2cccs2)C([n+]2ccccc2)=C([O-])c2ccccc21", "inhibition": "inconclusive: 8.06%"},
      {"smiles": "COc1cccc(NC(=O)CN(C)C(=O)c2cc3c(s2)CCCCC3)c1", "inhibition": "active: 12.6%"},
      {"smiles": "CCc1noc(C)c1C(=O)Nc1cc(S(=O)(=O)N2CCOCC2)ccc1OC(C)C", "inhibition": "active: 16.2%"},
      {"smiles": "O=C(N/N=C/C1C(=O)NC(=S)N(c2ccccc2)C1=O)c1cc(Br)c(O)c(Br)c1", "note": "(centres undefined)", "inhibition": "inconclusive: 9.55%"},
      {"smiles": "Cc1ccc(C(=O)N2CCN(c3ccc(NC(=O)c4cccnc4)cc3)CC2)cc1", "inhibition": "inactive: -0.036%"},
      {"smiles": "Oc1c(Cl)cccc1Cc1cc(Cl)cc(Cl)c1O", "inhibition": "active: 11.9%"},
      {"smiles": "CCOC(=O)c1ccc(NC(=O)c2nc[nH]c2C(=O)N(CC)CC)cc1", "inhibition": "inconclusive: 6.2%"},
      {"smiles": "COc1ccc(S(=O)(=O)N(CC(=O)N/N=C/c2cccs2)c2ccc(C)cc2)cc1OC", "inhibition": "inactive: -0.982%"},
      {"smiles": "COc1ccc(CNCCc2ccc3c(c2)OCO3)cc1Br", "inhibition": "inconclusive: 6.71%"},
      {"smiles": "Nc1c(/C=C2/C=CC(=O)C(O)=C2)c(=O)nc2sc(CC(=O)N3CCCCC3)nn12", "inhibition": "inconclusive: 12.2%"},
      {"smiles": "Cc1ccc(NS(=O)(=O)c2ccc(NC(=O)CN(c3cc([N+](=O)[O-])ccc3C)S(C)(=O)=O)cc2)c(C)c1", "inhibition": "inconclusive: 6.62%"},
      {"smiles": "COc1ccc(/C=N/NC(=O)CN(C2=NS(=O)(=O)c3ccccc32)c2ccccc2)cc1OC", "inhibition": "inconclusive: 6.11%"},
      {"smiles": "CCCCCCCCCCCCCCCC[N+](C)(C)CC", "inhibition": "active: 18.8%"},
      {"smiles": "O=C(O)c1cccc(-n2cccc2/C=C2/NC(=O)N(c3ccc(Cl)cc3)C2=O)c1", "inhibition": "inconclusive: 9.86%"},
      {"smiles": "O=C1NC(=O)N(Cc2ccc(F)cc2)C(=O)/C1=C\\c1ccc([N+](=O)[O-])s1", "inhibition": "active: 28.5%"},
      {"smiles": "CCn1c(O)c(C=Nc2ccc(N3CCOCC3)cc2)c(=O)n(CC)c1=S", "inhibition": "inconclusive: 8.05%"}
    ]}
  ]
}
